# According to patent publication US7157092B1, “Acyl pseudodipeptides, preparation method and pharmaceutical compositions containing same” (Om Pharma, priority 1998, dated 2007):
# Test system: predendritic cells (DC-6)
# Test: Dendritic cell maturation: expression of CD40, CD80, CD83, CD86 surface markers
# Details: DC-9 stage
# Procedure: Cells: Mononucleated cells of peripheral blood are isolated from buffy coats of six healthy donors.
# These cells are called predendritic cells (DC-6). Maturation of predendritic cells into mature dendritic cells is achieved by incubating cells with OM-294-MP, OM-294-DP or LPS for 3 further days at concentrations set below under Product section. At day 9, (DC-9) cells were harvested and analyzed for different indicators of dendritic cell maturation: assessment of CD40, CD80, CD83, CD86 surface markers as well as of their ability to take up FITC-Dextran conjugate. All theses parameters are analyzed by an EPICS-XL-MCL model FACS (Coulter Immunology, Hialeah, Finland).
# Data analysis: Expression of surface markers is expressed as % of mean fluorescence of cells stimulated by LPS (positive control); FITC-Dextran conjugate take-up is calculated with respect to take-up rate for cells maintained in basic medium and is expressed in %. Statistic analysis by t-student test involves comparing data obtained from different tests with the data of a positive control. Data significance level is set at p<0.05.
# Reference Product: E. coli lipopolysaccharide (LPS, DIFCO, Detroit, Mich., USA), as a 5 mg/ml stock solution in PBS. An intermediate 100 μg/ml solution is prepared in RPMI 1640 culture medium. […]
compound,measurement,value
"CCCCCCCCCCCC(=O)O[C@H](CCCCCCCCCCC)CC(=O)NC(CCOP(=O)(O)O)C(=O)NCCCC(COP(=O)(O)O)NC(=O)C[C@H](O)CCCCCCCCCCC (stereo partly drawn) [OM-294-DP, 3-[(R)-3-dodecanoyloxytetradecanoylamino]-4-oxo-5-aza-9-[(R)-3-hydroxytetradecanoylamino]decan-1,10-diol 1, 10-bis(dihydrogenphosphate)]","effect upon expression of the investigated markers (CD40, CD80, CD83, CD86), % of LPS action",≤ 20%
